The record followed here is article PMC6919601, “Identification of Plasmodium dipeptidyl aminopeptidase allosteric inhibitors by high throughput screening” (PLoS ONE, 2019).

Structures are written as SMILES. In all, about 110,000 compounds went through this assay and about 230 (0.21%) showed an effect of 50% or more. Some of the results follow.
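Further: 30 min substrate incubation versus DMSO and 10 µM JCP410 controls.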

The target in this experiment is DPAP1 (Plasmodium falciparum, UniProt Q8IIJ9). The experiment can be described thus: primary screen, percent inhibition; read by cleavage of a fluorogenic dipeptide substrate; higher = more effect of the substance. Also noted: species or system P. falciparum D10 trophozoite lysates; single well.
Sequence of DPAP1 (Q8IIJ9 whole entry, looked up): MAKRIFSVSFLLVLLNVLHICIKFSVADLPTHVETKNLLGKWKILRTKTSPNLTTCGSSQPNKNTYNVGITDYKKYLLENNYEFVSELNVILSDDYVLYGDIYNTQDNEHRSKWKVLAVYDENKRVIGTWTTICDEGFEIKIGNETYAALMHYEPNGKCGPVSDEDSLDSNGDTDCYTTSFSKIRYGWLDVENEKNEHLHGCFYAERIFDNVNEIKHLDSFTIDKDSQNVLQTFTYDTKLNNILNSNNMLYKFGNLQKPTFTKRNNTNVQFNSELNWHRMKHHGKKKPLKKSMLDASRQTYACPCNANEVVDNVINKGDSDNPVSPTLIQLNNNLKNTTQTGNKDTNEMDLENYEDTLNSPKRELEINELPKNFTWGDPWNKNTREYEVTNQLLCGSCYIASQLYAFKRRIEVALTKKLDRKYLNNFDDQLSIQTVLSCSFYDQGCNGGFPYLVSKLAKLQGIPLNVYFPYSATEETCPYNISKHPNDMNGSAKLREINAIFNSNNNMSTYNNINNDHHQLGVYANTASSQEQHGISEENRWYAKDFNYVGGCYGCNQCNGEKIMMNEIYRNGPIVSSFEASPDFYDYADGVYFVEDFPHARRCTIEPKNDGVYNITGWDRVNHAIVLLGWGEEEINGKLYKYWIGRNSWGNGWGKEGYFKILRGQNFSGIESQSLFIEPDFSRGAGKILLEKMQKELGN
Turning to `O=C1Nc2ccc3ccccc3c2C(c2ccccc2)N1` (stereo not shown), the “% Inhibition @ 10 uM” value was -3.52%.
Regarding `CCOC(=O)c1sc(C)c2c(O)nc(C)nc12`, the “% Inhibition @ 10 uM” value is -3.09%.
On to `CCN1CCCC1CNC(=O)C1CCN(c2nc3ccccc3n3cccc23)CC1` (stereo not shown), for which the “% Inhibition @ 10 uM” value was -1.97%.
For `O=C(Nc1nc(=O)c2ccccc2s1)c1ccccc1`, the “% Inhibition @ 10 uM” value amounted to 0.673%.
`O=C(O)CCC(=O)Nc1ccc(-c2nc3ccccc3o2)cc1`: the “% Inhibition @ 10 uM” value was 0.878%.
As to `COc1ccc(CNCCC(c2ccc3c(c2)OCO3)c2ccccc2OC)cc1OC` (stereo not shown), the “% Inhibition @ 10 uM” value is -9.83%.
As to `CC/N=C1\S/C(=C\c2cccn2-c2cccc(C(=O)O)c2)C(=O)N1CC`, the “% Inhibition @ 10 uM” value is listed as 1.98%.
As for `COCCCNc1nc2c(c(=O)[nH]c(=O)n2C)n1CCCc1ccccc1`, the “% Inhibition @ 10 uM” value is given as -5.08%.
For `Cc1ccc2c(c1)-c1c(cnn1CC(=O)NCCCN1CCOCC1)CO2`, the “% Inhibition @ 10 uM” value was -0.405%.
Consider `Cc1nc2cc(-c3ccccc3)nn2c(C)c1CC(=O)NCC(C)c1ccccc1` (stereo not shown), for which the “% Inhibition @ 10 uM” value is on record as -2.45%.
In the case of `CCOC(=O)N1CCC(NC(=O)c2noc3c2COc2ccc(C)cc2-3)CC1`, the “% Inhibition @ 10 uM” value is listed as -5.3%.
Regarding `COc1ccc(N2C(=O)S/C(=C3\C(=O)Nc4ccccc43)C2=O)cc1`, the “% Inhibition @ 10 uM” value is -4.18%.
As to `C=CCc1c(C)nc(-c2ccccc2)nc1Nc1ccc(OC)cc1`, the “% Inhibition @ 10 uM” value is -0.712%.
For the compound `COc1ccc2oc(=O)c(-c3nnc(NC4CCCCC4)s3)cc2c1`, the “% Inhibition @ 10 uM” value stood at 2.89%.
For `CCCC(=O)NCCSCCNC(=O)CCC`, the “% Inhibition @ 10 uM” value was determined as 2.94%.
For the compound `Cc1ccc(CN(CC(=O)Nc2cccc(Br)c2)S(=O)(=O)c2ccccc2)cc1`, the “% Inhibition @ 10 uM” value worked out at 1.03%.
With `CC(=O)N(Cc1ccc2c(c1)OCO2)C1CC(=O)N(c2ccccc2)C1=O` (stereo not shown) the figure was 3.53%; with `COc1ccc(-c2cc(C(F)(F)F)nc(NCc3cccnc3)n2)cc1OC`, 4.79%.
Regarding `Cc1ccc(SC(C)C(=O)N2CCC(C(N)=O)CC2)cc1` (stereo not shown), the “% Inhibition @ 10 uM” value is -2.65%.
As for `CCc1sc(N)[n+](C)c1-c1ccc(OC)cc1`, the “% Inhibition @ 10 uM” value is given as -3.45%.
As for `Cn1nc(C(F)(F)F)cc1C(=O)NCc1ccc(F)cc1`, the “% Inhibition @ 10 uM” value amounted to 3.68%.
`Cc1ccc(Cl)cc1N(CC(=O)NC1CC2CCC1C2)S(=O)(=O)c1ccccc1` (stereo not shown): the “% Inhibition @ 10 uM” value is -4.13%.
For the compound `Cc1cc(O)nc(SCC(=O)N2CCC(C(N)=O)CC2)n1`, the “% Inhibition @ 10 uM” value was found to be 5.49%.
Under `COC(=O)c1c(N)sc(C(=O)N(C)C)c1C` stands 8.16%; under `Cc1oc(-c2ccc(C(=O)N3CC(C)CC(C)C3)cc2)nc1COc1ccccc1` (stereo not shown), 4.28%.
As to `Cc1cc(C)cc(Oc2coc3c(CN4CCOCC4)c(O)ccc3c2=O)c1`, the “% Inhibition @ 10 uM” value is given as -2.87%.
With `Cc1ccccc1Cn1c(CN2CCN(C)CC2)nc2c1c(=O)n(C)c(=O)n2C`, the “% Inhibition @ 10 uM” value is given as -8.06%.
In the case of `CCOc1ccc(CCNC(=O)Cn2c(=O)cc(C(F)(F)F)c3c(C)nn(C)c32)cc1OCC`, the “% Inhibition @ 10 uM” value was -0.12%.
With `O=C(CN(C1CCCCC1)S(=O)(=O)c1ccc(F)cc1)Nc1ccc(Cl)cc1`, the “% Inhibition @ 10 uM” value turned out to be 2.27%.
With `CC(O)Cn1c2ccccc2c2cc(Cl)ccc21` (stereo not shown), the “% Inhibition @ 10 uM” value worked out at 0.132%.
As to `CCCSc1nnc(NC(=O)c2sc(C)nc2C)s1`, the “% Inhibition @ 10 uM” value was 0.758%.
Turning to `O=C(Nc1ccc2c(c1)C(=O)OC2)NC1CCCCC1`, the “% Inhibition @ 10 uM” value is given as 2.38%.
As for `CCOC(=O)C1=C(C)NC(=O)NC1c1c(F)cccc1Cl` (stereo not shown), the “% Inhibition @ 10 uM” value is given as -4.75%.
As to `O=C(CNC(=S)N(Cc1ccc(F)cc1)C1CCCCC1)NC1CC1`, the “% Inhibition @ 10 uM” value stood at 2.9%.
`Cc1[nH]c2ccccc2c1C(=O)CN1CCCCC1`: the “% Inhibition @ 10 uM” value is recorded as 2.62%.
As for `CC1=C(c2ccc(C)cc2)S(=O)(=O)N=C1NC(C)CCc1ccccc1` (stereo not shown), the “% Inhibition @ 10 uM” value was 5.42%.
For `O=C(O)/C=C\C(=O)Nc1ccc(Cl)c([N+](=O)[O-])c1`, the “% Inhibition @ 10 uM” value is listed as -0.807%.
Consider `COc1ccc(-c2csc(/C(C#N)=C/c3ccccc3Cl)n2)cc1`, for which the “% Inhibition @ 10 uM” value was 4.12%.
`COc1ccc(/C=C(/NC(=O)c2ccco2)C(=O)Nc2ccc(C)cc2)cc1`: the “% Inhibition @ 10 uM” value is listed as -4.08%.
For `O=C(CN1C(=O)C2C3CCC(C3)C2C1=O)N1CCN(Cc2ccccc2)CC1` (stereo not shown), the “% Inhibition @ 10 uM” value is reported as -2.3%.
As for `CCOCCCCNC(=O)c1ccc2c(c1)nc(C)n2-c1cccc(C)c1`, the “% Inhibition @ 10 uM” value was -7.57%.
Consider `COC(=O)C1=C(C)OC(N)=C(C#N)C1c1cc(Cn2cncn2)cs1` (stereo not shown), for which the “% Inhibition @ 10 uM” value is on record as 0.895%.
On to `CCOC(=O)C1CCN(C(=O)c2cccs2)CC1`, for which the “% Inhibition @ 10 uM” value was -2.78%.
Consider `COc1cc(OC)c(C2C(C(=O)Nc3cccnc3)=C(C)Nc3ncnn32)cc1OC` (stereo not shown), for which the “% Inhibition @ 10 uM” value worked out at 1.97%.
With `Cc1ccc(C2C(C(=O)c3ccc(Cl)cc3)=C(O)C(=O)N2c2cccnc2)cc1` (stereo not shown) the figure was 15.9%; with `Cc1ccc(-c2csc(NC(=O)CN3C(=O)c4ccccc4C3=O)n2)cc1`, -6.08%.
Regarding `O=C(c1cnn2c1NC(c1ccc(Br)cc1)CC2C(F)(F)F)N1CCCC1` (stereo not shown), the “% Inhibition @ 10 uM” value is 1.02%.
Under `CCOC(=O)N1CCC(Nc2ccc(SC)cc2)CC1` stands 3.18%; under `CCN1CCC(C#N)(NC(=O)[C@H](C[C@H](C)c2ccccc2)NC(=O)c2ccc(-c3cc(C(=O)OC)ccc3Cl)cc2)CC1`, 4.33%.
